Test results: patent publication US6699837

Assays:
[1] = molecular target: HGF receptor (c-met) on rat pheochromocytoma PC12 cells (rat) (UniProt P97523); test: ^125I-HGF saturation binding on PC12 cells differentiated for 7 days with 50 ng/ml NGF, Scatchard analysis
[2] = molecular target: HGF receptor (c-met) on rat pheochromocytoma PC12 cells (rat) (UniProt P97523); test: ^125I-HGF saturation binding on undifferentiated PC12 cells, Scatchard analysis

Kd [1]: 0.027 nM | binding sites (sites/cell) [1]: 15 sites/cell | B max (sites/cell) [2]: 185 sites/cell | Kd [2]: 0.04 nM
Substance: Human recombinant HGF (hepatocyte growth factor), radioiodinated (^125I-HGF) (a stretch of the chain, sequence not shown) (ligand; radioiodinated with ^125I by the chloramine-T method (labelled residues not stated); other documents disagree on this pair)
